According to PubChem BioAssay AID1466 (National Center for Advancing Translational Sciences (NCATS), 2008):
In all, about 200,000 compounds went through this assay and about 10 (0.005%) were called active. The shares of active, inactive and inconclusive entries below differ from those in the screen. Calls follow the shape of the dose curve; as a rule, active = well fitted inhibition curve with a large enough effect; inconclusive = small, poorly fitted or top-dose-only effect, or effect the other way, or another doubt; inactive = no such curve, though single readings can be large or run the other way. Where the call is inconclusive, the potency comes from a doubtful curve fit.

Molecular target: Lysosomal alpha-glucosidase (Homo sapiens) (UniProt P10253)
Test: qHTS Assay for Inhibitors of Human alpha-Glucosidase as a Potential Chaperone Treatment of Pompe Disease;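 as to activity change, negative = inhibition: plate controls were uninhibited enzyme wells for no effect and no-enzyme background for full effect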
Conditions: purified human GAA, 4-MU-alpha-glucoside fluorescence; activity change, negative = inhibition: at 76.9 µM (top of the series) unless noted
Method in brief: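 qHTS format, compound range up to 77 uM. Human lysosomal enzyme at 4 nM, 400 uM 4-MU glucoside substrate, pH 5.0, 20 min room temperature; fluorescence after alkaline stop gives activity normalized to controls.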
Potency is read from the fitted curve at half-maximal effect; tags tell the direction and shape of the fitted curve.

Compound | Potency | activity change, negative = inhibition
O=C(c1cccc2ccccc12)C1CCCN(C2CCC2)C1 (stereo not given) | inconclusive: 39.8 µM [inhibitor, single point] | 
CCC(=NC1CC1)c1c(O)n(C2CCCCC2)c(=O)[nH]c1=O | inconclusive: 2 µM [inhibitor, partial curve] | 
CC(Cc1ccccc1)NCC(=O)Nc1cc(N(C)C)nc2ccccc12 (stereo not given) |  | inconclusive: 5.83% [activator] [at 15.4 µM]
Nc1c(C(=O)NCCc2ccccc2)c2nc3ccccc3nc2n1CCN1CCOCC1 | inconclusive: 56.2 µM [activator, single point] | 
CCc1sc(C(=O)N2CCC3(CC2)OCCO3)cc1Br |  | inconclusive: -18.1% [inhibitor]
CCOc1ccccc1N1C(=O)NC(=O)/C(=C/c2ccc3c4c(cccc24)CC3)C1=O | inconclusive: 44.7 µM [activator, partial curve] | 
FC(F)(F)c1cccc(CN2CCCCCC2)c1 | inconclusive: 5.62 µM [inhibitor, partial curve] | 
Nc1c(C(=O)OC2CCCCC2)c2nc3ccccc3nc2n1CC1CCCO1 (stereo not given) | inconclusive: 35.5 µM [activator, partial curve] | 
CCCCCn1c(N)c(C(=O)NCc2cccs2)c2nc3ccccc3nc21 | inconclusive: 31.6 µM [activator, partial curve] | 
Clc1ccc(CNC2CN3CCC2CC3)cc1 (stereo not given) | inconclusive: 50.1 µM [inhibitor, single point] | 
COc1ccccc1Cn1c(SCC#N)nc2cc(C(=O)N3CCC4(CC3)OCCO4)ccc2c1=O | inconclusive: 31.6 µM [inhibitor, single point] | 
CC(=O)C1C2c3ccccc3O[C@@]1(C)N=c1s/c(=C/c3ccoc3)c(=O)n12 (stereo not given in full) | inconclusive: 31.6 µM [inhibitor, single point] | 
CC(=O)c1cc(OC(=O)N2CCOCC2)ccc1OC(=O)N1CCOCC1 | inconclusive: 11.2 µM [inhibitor, single point] | 
C=CCn1c(O)c(/C=N/N2CCCCC2c2cccnc2)c(=O)[nH]c1=S (stereo not given) | inconclusive: 50.1 µM [inhibitor, single point] | 
O=c1[nH]c(=S)n(Cc2ccc(F)cc2)c(O)c1C=NCc1cccnc1 | inconclusive: 28.2 µM [inhibitor, single point] | 
N#Cc1c(/N=C/c2c(O)n(Cc3ccco3)c(=O)[nH]c2=O)sc2c1CCCC2 |  | inactive: 11%
Clc1ccc(N2CCN(Cc3ccccc3Cl)CC2)cc1 | inconclusive: 50.1 µM [inhibitor, single point] | 
COc1ccc(CNc2oc(-c3cccc4ccccc34)nc2P(=O)(OC)OC)cc1 | inconclusive: 35.5 µM [activator, partial curve] | 
N#Cc1cc2c(nc1SCC(=O)Nc1cc(Cl)cc(Cl)c1)C1CCN2CC1 | inconclusive: 56.2 µM [inhibitor, single point] | 
CCOc1ccc(-c2cc(C)[n+](CCO)c(-c3ccc(OCC)cc3)c2)cc1 | inconclusive: 56.2 µM [activator, single point] | 
CCOP(=O)(OCC)C(NC(=O)Cc1ccccc1)C(Cl)(Cl)Cl (stereo not given) | inconclusive: 7.08 µM [inhibitor, full curve, poor fit] | 
Cc1ccc(-n2c(/C=C/c3ccc4c(c3)OCO4)nc3ccccc3c2=O)cc1 | inconclusive: 50.1 µM [activator, single point] | 
Nc1c(C(=O)NCCN2CCOCC2)c2nc3ccccc3nc2n1Cc1ccco1 | inconclusive: 39.8 µM [activator, partial curve] | 
CC1(C(O)(C#CCN2CCCCC2)c2ccccc2)CCCC1 (stereo not given) | inconclusive: 22.4 µM [inhibitor, partial curve] | 
CCCC/C(C)=C/[C@@H](NP(=O)(c1ccccc1)c1ccccc1)c1ccccc1 | inconclusive: 5.01 µM [inhibitor, single point] | 
CC(=O)C(Sc1ncnc2c1nnn2-c1ccc(F)cc1)C(=O)N(C)C (stereo not given) | inconclusive: 39.8 µM [inhibitor, single point] | 
CCCOP(=O)(OCCC)c1nc(-c2ccccc2)oc1NCc1ccccc1 | inconclusive: 25.1 µM [inhibitor, partial curve] | 

Compound | Potency | activity change, negative = inhibition
N#CC1(c2ccccc2)CCN(C2CC(=O)N(c3ccc4c(c3)OCO4)C2=O)CC1 (stereo not given) | inconclusive: 20 µM [inhibitor, single point] | 
O=C(c1cccs1)C1CN2CCC1CC2 (stereo not given) | inconclusive: 3.55 µM [inhibitor, partial curve, poor fit] | 
CSc1ncc(/C=C2/C(=O)NC(=O)N(c3ccc(C)cc3)C2=O)cn1 | inconclusive: 1.58 µM [inhibitor, full curve] | 
CCN(CC)S(=O)(=O)c1cc(NC(=O)C(C)N2CC=C(c3ccccc3)CC2)ccc1C (stereo not given) | inconclusive: 2.82 µM [inhibitor, full curve] | 
O=C(N=Nc1c(O)[nH]c(=O)[nH]c1=O)C1COc2cc3ccccc3cc2O1 (stereo not given) |  | inactive: -8.21%
CN(C)c1cccc2c(C#N)ccc(N(C)C)c12 | inconclusive: 50.1 µM [inhibitor, single point] | 
CN1CCN(c2ccc(/C=C3\C(=O)NC(=S)N(c4cccc(Br)c4)C3=O)o2)CC1 | inconclusive: 11.2 µM [inhibitor, single point] | 
O=C(Nc1ccc(OC(=O)N2CCCCC2)cc1)N1CCOCC1 |  | inconclusive: 19.7% [activator]
CCN1C(=O)CC(c2cccnc2)=Nc2ccccc21 |  | inconclusive: 11.4% [activator]
Cn1c(O)c(C=NC2CCCCC2)c(=O)[nH]c1=S |  | inconclusive: 8.36% [activator]
Cc1cccc(NP(=O)(Oc2ccccc2F)Oc2ccccc2F)c1C | inconclusive: 25.1 µM [inhibitor, partial curve, poor fit] | 
CCOC(=O)N1CCN(C(C)C(=O)c2c[nH]c3ccccc23)CC1 (stereo not given) | inconclusive: 11.2 µM [inhibitor, single point] | 
O=C(c1ccc(Cl)cc1)C1CCCN(Cc2cccc3cnccc23)C1 (stereo not given) | inconclusive: 2.82 µM [inhibitor, partial curve] | 
N#CC(C#N)=C(N)c1cccnc1 |  | inconclusive: 15.2% [activator]
CC1CC2(O)c3no[n+]([O-])c3CCC2N1O (stereo not given) |  | inactive: -4.81%
O=c1[nH]c(=O)n(Cc2ccccc2)c(O)c1C=NCCCO |  | inconclusive: -16.2% [inhibitor]
CCOP(=O)(OCC)c1nc(-c2cccc3ccccc23)oc1N1CCCCC1 | inconclusive: 35.5 µM [activator, partial curve] | 
CCOP(=S)(OCC)N1CCOCCOCCN(P(=S)(OCC)OCC)CCOCCOCC1 | inconclusive: 14.1 µM [inhibitor, partial curve, poor fit] | 
O=C(COC(=O)Cc1ccccc1)Nc1ccc(SC(F)F)cc1 | inconclusive: 50.1 µM [inhibitor, single point] | 
CC(C)CCn1c(N)c(C(=O)NCc2cccs2)c2nc3ccccc3nc21 | inconclusive: 28.2 µM [activator, partial curve] | 
CCOC(=O)c1c(C)n(Cc2ccccc2)c2ccc(OCC(O)Cn3nc(C)cc3C)cc12 (stereo not given) | inconclusive: 11.2 µM [inhibitor, partial curve, poor fit] | 
CCCCCOc1ccc(C)cc1CN(CCCl)CCCl | inconclusive: 17.8 µM [inhibitor, partial curve] | 
C=CCn1c(O)c(C(C)=NCCCO)c(=O)[nH]c1=O | inconclusive: 22.4 µM [inhibitor, partial curve] | 
O=C1NC(=O)N(c2ccccc2)C(=O)/C1=C/c1ccc(Sc2ccccc2)o1 |  | inactive: 5.52% [at 15.4 µM]
CCCCn1c(O)c(C(CC)=Nc2ccc(OCC)cc2)c(=O)[nH]c1=O | inconclusive: 28.2 µM [inhibitor, partial curve] | 
O=C1NC(=O)C(CCc2ccncc2)(CCc2ccncc2)C(=O)N1C1CCCCC1 |  | inconclusive: 8.8% [activator]
Cc1nn(Cc2ccccc2Cl)c(Cl)c1C(=O)O | inconclusive: 4.47 µM [inhibitor, single point] | 

Compound | Potency | activity change, negative = inhibition
Cc1ncc(CC(=O)n2cc(C(=O)c3cc(Cl)ccc3O)cn2)s1 | inconclusive: 50.1 µM [inhibitor, single point] | 
Cc1cccn2c(NCC3CCCO3)c(C(C)C)nc12 (stereo not given) |  | inactive: 0.666%
O=C(c1cc2c(s1)-c1ccccc1OC2)N1CCC2(CC1)OCCO2 | inconclusive: 39.8 µM [activator, partial curve] | 
C=CCn1c(O)c(N=Nc2c(C)n(C)n(-c3ccccc3)c2=O)c(=O)[nH]c1=S | inconclusive: 31.6 µM [inhibitor, single point] | 
CCCCC(=O)N/N=C/c1c(O)n(CCc2ccc(OC)c(OC)c2)c(=O)[nH]c1=O |  | inconclusive: 19.4% [activator]
CCCCNC(=O)c1c(N)n(CCCOC)c2nc3ccccc3nc12 | inconclusive: 17.8 µM [activator, partial curve] | 
Oc1ccc(/C=N/NP(=S)(c2ccccc2)c2ccccc2)c(O)c1O | inconclusive: 56.2 µM [inhibitor, single point] | 
Cc1c(C(=O)Nc2ccccc2)cc(-c2ccccc2)n1CCCN1CCOCC1 |  | inconclusive: -15.5% [inhibitor]
O=[N+]([O-])c1ccc(N2CCNCC2)cc1NCc1ccco1 | inconclusive: 28.2 µM [inhibitor, partial curve] | 
COc1ccc(Cn2c(N)c(C(=O)NCc3ccco3)c3nc4ccccc4nc32)cc1 | inconclusive: 20 µM [activator, partial curve] | 
Nc1c(C(=O)NCCCc2ccccc2)c2nc3ccccc3nc2n1Cc1cccs1 | inconclusive: 15.8 µM [activator, partial curve] | 
O=C1c2ccccc2NC(c2ccccc2O)N1NS(=O)(=O)c1ccccc1 (stereo not given) | inconclusive: 12.6 µM [inhibitor, single point] | 
CC(C)CCNC(=O)c1c(N)n(CC2CCCO2)c2nc3ccccc3nc12 (stereo not given) | inconclusive: 31.6 µM [activator, single point] | 
CC(C)CC(=O)NC(Oc1ccc(Cl)cc1)C(Cl)(Cl)Cl (stereo not given) | inconclusive: 0.708 µM [inhibitor, full curve, poor fit] | 
CCN(CC)C(=O)C(C(=O)c1cccc([N+](=O)[O-])c1)n1cc(Cl)ccc1=O (stereo not given) | inconclusive: 1 µM [inhibitor, full curve, poor fit] | 
Cc1cc(C)c(-n2c(O)c(/C=N/N3CCCCC3c3cccnc3)c(=O)[nH]c2=O)c(C)c1 (stereo not given) |  | inconclusive: -15.6% [inhibitor]
CC(C)(C)OC(=O)c1c(N)n(Cc2ccco2)c2nc3ccccc3nc12 | inconclusive: 35.5 µM [activator, partial curve] | 
COc1ccc(N2CCN(C(CNC(=O)Oc3ccccc3)c3cccnc3)CC2)cc1 (stereo not given) | inconclusive: 20 µM [inhibitor, single point] | 
Cc1cccc(-c2noc(-c3ccc4c(c3)OCO4)n2)c1 | inconclusive: 0.355 µM [activator, full curve] | 
COc1cc(Cn2c(N)c(C(=O)NCc3ccco3)c3nc4ccccc4nc32)cc(OC)c1OC | inconclusive: 31.6 µM [activator, partial curve] | 
CCOC(=O)C1=C(N)OC2=C(C(=O)CCC2)C12C(=O)N1c3c(ccc(C)c32)C(C)=CC1(C)C (stereo not given) | inconclusive: 50.1 µM [inhibitor, single point] | 
COP(=O)(OC)c1nc(-c2cccc3ccccc23)oc1NCCc1ccccc1 | inconclusive: 31.6 µM [activator, partial curve] | 
ON1C2CCCCC2N(O)C1c1ccccc1F (stereo not given) |  | inactive: 1.44%
CCOC(=O)c1nsnc1NCCCl |  | inconclusive: 15% [activator]
Cc1cccc(N2C(=O)NC(=O)/C(=C/c3ccc([N+](=O)[O-])o3)C2=O)c1 |  | inactive: 3.44%
COc1ccc(C(=O)Nc2ccccc2-c2nnn(CC(=O)Nc3ccc4c(c3)OCCO4)n2)cc1 | inconclusive: 50.1 µM [activator, single point] | 
